From patent US20200060276A1, “THIAZOLE COMPOUND AND HERBICIDE” (OAT Agrio Co., Ltd., priority 2017, published 2020)
Some results were stated once for a whole list of compounds, not compound by compound.

What was measured:
[1] = system: Echinochloa crus-galli (L.) P. Beauv. var. formosensis Ohwi; assay: Test for Herbicidal Effect in Flooding Treatment (#2), ECHDG at 2-2.5 leaf stage; type: in vivo; conditions: dose of 0.2 kg/ha, day 21, visual observation
Description: (#2) Test for Herbicidal Effect in Flooding Treatment: Styrol cups each having an opening diameter of 13 cm (about 130 cm^2) were respectively filled with muddy soil (500 ml). Water (about 300 ml) was mixed with the soil such that the soil was flooded. After the soil stood still for 24 hours, Echinochloa crus-galli (L.) P. Beauv. var. formosensis Ohwi was seeded. When the Echinochloa crus-galli (L.) P. Beauv. var. formosensis Ohwi grew to reach 2-2.5 leaf stage, chemical solutions were dropped on the entire surface of treatment sections, so that each section is treated with 1 ml of the respective chemical solution (a dose of 0.2 kg/ha). Each of the chemical solutions was prepared by dissolving associated one of the compounds of the present invention in acetone, followed by dilution with water containing Tween 80 g. After the treatment, the plants were grown in a glasshouse. On day 21, a survey was conducted on the herbicidal activity by visual observation, and evaluation was made according to the following criteria. 0: Growth inhibition effect is less than 10%. 1: Growth inhibition effect is equal to or greater than 10%, and less than 30%. 2; Growth inhibition effect is equal to or greater than 30%, and less than 50%. 3: Growth inhibition effect equal to or greater than 50%, and less than 70%. 4: Growth inhibition effect is equal to or greater than 70%, and less than 90%. 5: Growth inhibition effect is equal to or greater than 90%, or complete withering is achieved. ECHDG=Echinochloa crus-galli (L.) P. Beauv. var. formosensis Ohwi, MONVA=Monochoria vaginalis, SCIJU=Scirpus juncoides, CYMIC=Cyperus microiria. The herbicidal activity of the following comparative compounds A and B (the compounds disclosed Japanese Unexamined Patent Publication No. 2003-096059) were evaluated in a manner pursuant to Test Example 1. (#2).

Digitaria ciliaris = assay: Test for Herbicidal Effect in Soil Treatment (#3); type: in vivo; conditions: dose of 2 kg/ha, day 21, visual observation
Source text: 0: Growth inhibition effect is less than 10%. 1: Growth inhibition effect is equal to or greater than 10%, and less than 30%. 2; Growth inhibition effect is equal to or greater than 30%, and less than 50%. 3: Growth inhibition effect equal to or greater than 50%, and less than 70%. 4: Growth inhibition effect is equal to or greater than 70%, and less than 90%. 5: Growth inhibition effect is equal to or greater than 90%, or complete withering is achieved. (#3) Test for Herbicidal Effect in Soil Treatment: Styrol cups each having an opening diameter of 8 cm (about 52 cm^2) were respectively filled with soil (45 ml) which had been passed through a sieve (2 mm). Water (about 115 ml) was added. Thereafter, Digitaria ciliaris was seeded. Each of the compounds of the present invention was dissolved in acetone, and the obtained product was then diluted with water containing Tween 80°. Each of the resultant chemical solutions was dropped on the entire surface of an associated one of treatment sections, so that each section was treated with 1 ml of the respective chemical solution (a dose of 2 kg/ha). After the treatment, the plants were grown in a glasshouse. On day 21, a survey was conducted on the herbicidal activity by visual observation, and evaluation was made according to the following criteria. The herbicidal activity of the following comparative compounds A and B (the compounds disclosed Japanese Unexamined Patent Publication No. 2003-096059) were evaluated.

Row | Structure (SMILES) | growth inhibition effect [1] [%] | growth inhibition effect (Digitaria ciliaris) [%]
1 | CC(c1c(F)cccc1OC(F)F)S(=O)(=O)c1ncc(Cl)s1 (racemic) [Compound 1C-140] | ≥ 90 | –
2 | COC(=O)C(c1c(F)cccc1OC(F)F)S(=O)(=O)c1ncc(Cl)s1 (racemic) [Compound 1C-145] | – | ≥ 50
3 | CC(c1c(Cl)cccc1OCCC(F)(F)F)S(=O)(=O)c1ncc(Cl)s1 (racemic) [Compound 1C-150] | – | ≥ 50
4 | FC(F)COc1cccc(Cl)c1CSc1ncc(Cl)s1 [Compound 1A-50] | – | ≥ 50
5 | Fc1cccc(OCC(F)(F)C(F)(F)F)c1CSc1ncc(Cl)s1 [Compound 1A-58] | – | ≥ 50
6 | FC(F)(F)C(F)(F)COc1cccc(Cl)c1CSc1ncc(Cl)s1 [Compound 1A-59] | – | ≥ 50
7 | COCOc1cccc(F)c1CS(=O)(=O)c1ncc(Cl)s1 [Compound 1C-37] | – | ≥ 90
8 | O=S(=O)(Cc1cc(Cl)ccc1OC(F)F)c1ncc(Cl)s1 [Compound 1C-39] | ≥ 90 | –
9 | O=S(=O)(Cc1c(Cl)cccc1OC(F)F)c1ncc(Cl)s1 [Compound 1C-42] | ≥ 90 | ≥ 90
10 | O=S(=O)(Cc1c(F)cc(F)cc1OC(F)F)c1ncc(Cl)s1 [Compound 1C-44] | – | ≥ 90
11 | O=S(=O)(Cc1ccccc1OC(F)(F)F)c1ncc(Cl)s1 [Compound 1C-46] | – | ≥ 90
12 | O=S(=O)(Cc1c(F)cccc1OC(F)(F)F)c1ncc(Cl)s1 [Compound 1C-48] | ≥ 90 | ≥ 90
13 | O=S(=O)(Cc1c(Cl)cccc1OC(F)(F)F)c1ncc(Cl)s1 [Compound 1C-49] | ≥ 90 | –
14 | O=S(=O)(Cc1c(F)cccc1OCC(F)F)c1ncc(Cl)s1 [Compound 1C-50] | ≥ 90 | –
15 | O=S(=O)(Cc1c(Cl)cccc1OCC(F)F)c1ncc(Cl)s1 [Compound 1C-51] | ≥ 90 | –
16 | O=S(=O)(Cc1c(OCC(F)F)cccc1C(F)(F)F)c1ncc(Cl)s1 [Compound 1C-52] | ≥ 90 | –
17 | O=S(=O)(Cc1c(F)cccc1OCC(F)(F)F)c1ncc(Cl)s1 [Compound 1C-54] | ≥ 90 | –
18 | O=S(=O)(Cc1c(Cl)cccc1OCC(F)(F)F)c1ncc(Cl)s1 [Compound 1C-55] | ≥ 90 | –
19 | O=S(=O)(Cc1c(OCC(F)(F)F)cccc1C(F)(F)F)c1ncc(Cl)s1 [Compound 1C-56] | ≥ 90 | –
20 | O=S(=O)(Cc1c(F)cccc1OCCC(F)(F)F)c1ncc(Cl)s1 [Compound 1C-58] | – | ≥ 50

Row | Structure (SMILES) | growth inhibition effect [1] [%] | growth inhibition effect (Digitaria ciliaris) [%]
21 | O=S(=O)(Cc1c(Cl)cccc1OCCC(F)(F)F)c1ncc(Cl)s1 [Compound 1C-59] | – | ≥ 50
22 | O=S(=O)(Cc1c(Cl)cccc1OCC(F)(F)C(F)(F)F)c1ncc(Cl)s1 [Compound 1C-62] | – | ≥ 50
23 | O=S(=O)(Cc1c(F)cccc1OCCCC(F)(F)F)c1ncc(Cl)s1 [Compound 1C-63] | – | ≥ 50
24 | CCOC(=O)C(F)(F)Oc1cccc(Cl)c1CS(=O)(=O)c1ncc(Cl)s1 [Compound 1C-64] | – | ≥ 50
25 | COc1ccc(Cl)c(CS(=O)(=O)c2ncc(Cl)s2)c1F [Compound 1C-71] | ≥ 90 | ≥ 50
26 | CCOc1cccc(CS(=O)(=O)c2ncc(Cl)s2)c1F [Compound 1C-75] | – | ≥ 50
27 | CCOc1cc(CS(=O)(=O)c2ncc(Cl)s2)ccc1F [Compound 1C-76] | – | ≥ 50
28 | CCOc1ccc(F)c(CS(=O)(=O)c2ncc(Cl)s2)c1F [Compound 1C-82] | – | ≥ 50
29 | COc1cc(Cl)c(CS(=O)(=O)c2ncc(Cl)s2)c(Cl)c1 [Compound 1C-91] | ≥ 90 | –
30 | CCOc1ccc(CS(=O)(=O)c2ncc(Cl)s2)cc1F [Compound 1C-95] | – | ≥ 50
31 | CCOc1ccc(CS(=O)(=O)c2ncc(Cl)s2)c(F)c1F [Compound 1C-99] | – | ≥ 50
32 | CCOc1c(F)cc(CS(=O)(=O)c2ncc(Cl)s2)cc1F [Compound 1C-104] | – | ≥ 50
33 | COCOc1cc(Cl)c(CS(=O)(=O)c2ncc(Cl)s2)c(Cl)c1 [Compound 1C-119] | – | ≥ 50
34 | COc1cccc(OC)c1CS(=O)(=O)c1ncc(Cl)s1 [Compound 1C-127] | – | ≥ 50
35 | O=S(=O)(Cc1c(OCC(F)F)cccc1OCC(F)F)c1ncc(Cl)s1 [Compound 1C-129] | – | ≥ 50
36 | [2H]C([2H])(c1c(F)cccc1OC(F)F)S(=O)(=O)c1ncc(Cl)s1 [Compound 1C-131] | ≥ 90 | –
37 | [2H]C([2H])(c1c(Cl)cccc1OC(F)F)S(=O)(=O)c1ncc(Cl)s1 [Compound 1C-132] | ≥ 90 | –
38 | [2H]C([2H])(c1c(Cl)cccc1OC(F)(F)F)S(=O)(=O)c1ncc(Cl)s1 [Compound 1C-133] | ≥ 90 | –
39 | [2H]C([2H])(c1ccccc1OCC(F)(F)F)S(=O)(=O)c1ncc(Cl)s1 [Compound 1C-134] | ≥ 90 | –
40 | [2H]C([2H])(c1c(Cl)cccc1OCC(F)(F)F)S(=O)(=O)c1ncc(Cl)s1 [Compound 1C-135] | ≥ 90 | –

Row | Structure (SMILES) | growth inhibition effect [1] [%] | growth inhibition effect (Digitaria ciliaris) [%]
41 | CCOc1ccc(Cl)cc1C(F)(F)S(=O)(=O)c1ncc(Cl)s1 [Compound 1C-138] | – | ≥ 50
42 | CC(=O)C(C(C)=O)(c1c(F)cccc1OC(F)F)S(=O)(=O)c1ncc(Cl)s1 [Compound 1C-147] | – | ≥ 50
43 | COc1cccc(Cl)c1CS(=O)(=O)c1ncc(Br)s1 [Compound 1C-151] | ≥ 90 | –
44 | O=S(=O)(Cc1ccccc1OC(F)F)c1ncc(Br)s1 [Compound 1C-152] | ≥ 90 | –
45 | O=S(=O)(Cc1c(F)cccc1OC(F)F)c1ncc(Br)s1 [Compound 1C-153] | ≥ 90 | ≥ 50
46 | O=S(=O)(Cc1c(Cl)cccc1OC(F)F)c1ncc(Br)s1 [Compound 1C-154] | ≥ 90 | –
47 | O=S(=O)(Cc1c(F)cccc1OC(F)(F)F)c1ncc(Br)s1 [Compound 1C-158] | ≥ 90 | –
48 | O=S(=O)(Cc1c(Cl)cccc1OC(F)(F)F)c1ncc(Br)s1 [Compound 1C-159] | ≥ 90 | –
49 | O=S(=O)(Cc1c(OCC(F)(F)F)cccc1C(F)(F)F)c1ncc(Br)s1 [Compound 1C-162] | ≥ 90 | –
50 | O=S(=O)(Cc1ccccc1OC(F)(F)C(F)F)c1ncc(Br)s1 [Compound 1C-163] | ≥ 90 | –
51 | O=S(=O)(Cc1c(F)cccc1OCC(F)(F)C(F)F)c1ncc(Br)s1 [Compound 1C-164] | – | ≥ 50
52 | CC(c1c(F)cccc1OCC(F)(F)C(F)F)S(=O)(=O)c1ncc(Br)s1 (stereo not drawn) [Compound 1C-165] | – | ≥ 50
53 | N#Cc1cccc(CS(=O)(=O)c2ncc(Cl)s2)c1 [Compound 1C-171] | – | ≥ 50
54 | N#Cc1ccc(CS(=O)(=O)c2ncc(Cl)s2)cc1 [Compound 1C-172] | – | ≥ 50
55 | O=S(=O)(Cc1c(Cl)cc(OC(F)F)cc1Cl)c1ncc(Cl)s1 [Compound 1C-175] | ≥ 90 | ≥ 50
56 | O=S(=O)(Cc1c(F)cc(OC(F)F)cc1F)c1ncc(Cl)s1 [Compound 1C-176] | ≥ 90 | –
57 | O=S(=O)(Cc1c(F)cccc1OCF)c1ncc(Cl)s1 [Compound 1C-179] | ≥ 90 | –
58 | O=S(=O)(Cc1c(Cl)ccc(OC(F)F)c1F)c1ncc(Cl)s1 [Compound 1C-180] | ≥ 90 | ≥ 50
59 | O=S(=O)(Cc1c(F)cccc1OS(=O)(=O)C(F)(F)F)c1ncc(Cl)s1 [Compound 1C-185] | ≥ 90 | ≥ 50
